The list shows a part of the results. Rule as the data show it: active = 3.2 or more and inactive = the rest. Only a few entries rise above the background.
B1: PPIG_Y320_L324F (peptide)
chain: SQPASYQRRFL
B2: PPP1R11_Y64 (peptide)
chain: KCCCIYEKPRA
B3: PPP2CA_Y127 (peptide)
chain: QITQVYGFYDE
B4: PPP2CA_Y127_D131H (peptide)
chain: QITQVYGFYHE
B5: PPP2CA_Y127_D131H_YF (peptide)
chain: QITQVYGFFHE
B6: PPP2CA_Y127_Q122H_YF (peptide)
chain: HITQVYGFFDE
B7: PPP2CA_Y265_YF (peptide)
chain: FSAPNYCFRCG
B8: PPP2CA_Y86_D88G (peptide)
chain: LFMGDYVGRGY
B9: PPP2CA_Y86_D88G_YF (peptide)
chain: LFMGDYVGRGF
B10: PPT1_Y185 (peptide)
chain: LVQAEYWHDPI
B11: PPT1_Y185_P189R (peptide)
chain: LVQAEYWHDRI
B12: PRAG1_Y132 (peptide)
chain: DAPVVYLGSFR
B13: PRDX3_Y172_R170Q (peptide)
chain: QISQDYGVLLE
B14: PRG4_Y1271 (peptide)
chain: GSIQQYIYKQE
B15: PRIM2_Y208 (peptide)
chain: EDGFAYVPLKD
B16: PRIM2_Y208_D204G (peptide)
chain: EGGFAYVPLKD
B17: PRKACA_Y205 (peptide)
chain: CGTPEYLAPEI
B18: PRKACA_Y205_L206R (peptide)
chain: CGTPEYRAPEI
B19: PRKAR1A_Y373_Y373H (peptide)
chain: RNIQQHNSFVS

The binders below were run against SHP2 C-SH2 domain E139D (assay: enrichment score (SH2-bound / input frequency) (ratio); bacterial display of known human phosphotyrosine sites (pTyr-Var adds point mutants) read by sequencing; higher = stronger binding; tyrosines were phosphorylated by kinases first). Conditions: peptide library: pTyr-Var.
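Also: displayed peptides selected on beads carrying the immobilized SH2 domain, with library peptides lacking any tyrosine serving as negative controls.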

Enrichment score, inactive:
B1 0.207
B2 1.06
B3 1.04
B4 1.62
B5 1.3
B6 2.24
B7 1.67
B8 1.03
B9 1.2
B10 1.29
B11 0.967
B12 0.638
B13 0.786
B14 0.829
B15 0.593
B16 0.559
B17 0.889
B18 0.792
B19 0.675

What follows are binders tested against SHP2 C-SH2 domain wild-type in the same assay as above. Conditions: peptide library: pTyr-Var.

Enrichment score, inactive:
B1 0.198
B2 1.28
B3 1.01
B4 1.18
B5 1.36
B6 1.56
B7 1.71
B8 1.04
B9 1.04
B10 1.13
B11 1.14
B12 1.31
B13 0.682
B14 0.905
B15 0.625
B16 0.494
B17 1.08
B18 0.841
B19 0.652

The binders below were run against SHP2 N-SH2 domain L43F in the same assay as above. Conditions: peptide library: pTyr-Var.

Enrichment score, inactive:
B1 0.233
B2 0.997
B3 1.04
B4 1.34
B5 1.72
B6 2.24
B7 1.64
B8 1.08
B9 1.13
B10 0.92
B11 1.08
B12 0.766
B13 0.767
B14 0.839
B15 0.497
B16 0.716
B17 0.83
B18 0.642
B19 0.666

The binders below were run against SHP2 N-SH2 domain T42A in the same assay as above. Conditions: peptide library: pTyr-Var.

Enrichment score, inactive:
B1 0.226
B2 1.11
B3 0.812
B4 1.56
B5 1.26
B6 2.07
B7 1.66
B8 0.873
B9 1.09
B10 1.02
B11 1.04
B12 1.77
B13 0.719
B14 0.566
B15 0.478
B16 0.513
B17 0.684
B18 0.591
B19 0.667

What follows are binders tested against SHP2 N-SH2 domain T52S in the same assay as above. Conditions: peptide library: pTyr-Var.

Enrichment score, inactive:
B1 0.236
B2 0.865
B3 0.759
B4 1.21
B5 1.62
B6 1.95
B7 1.41
B8 0.671
B9 1.1
B10 1.32
B11 0.783
B12 0.639
B13 0.962
B14 0.821
B15 0.474
B16 0.392
B17 0.628
B18 0.722
B19 0.965

These binders were tested against SHP2 N-SH2 domain wild-type in the same assay as above. Conditions: peptide library: pTyr-Var.

Enrichment score, inactive:
B1 0.18
B2 1.3
B3 1.31
B4 1.21
B5 1.65
B6 1.65
B7 1.55
B8 0.946
B9 1.09
B10 1.17
B11 0.963
B12 0.718
B13 0.843
B14 0.439
B15 0.467
B16 0.53
B17 1.31
B18 0.895
B19 0.75
